Source: a collection of fitness landscapes (doi:10.1016/j.celrep.2020.107928)
In all, about 81,000 sequences were measured (“one-hybrid fitness for binding parS DNA”: median about -0.17, highest 2% from about 0.51 on). This is one part of the list.

B1: Caulobacter ParB omega fusion; a variant is named by its letters at X, in order, B8GW30 (parent)
chain: MESVVVGEPGMSEGRRGLGRGLSALLGEVDAAPAQAPGEQLGGSREAPIEILQRNPDQPRRTFREEDLEDLSNSIREKGVLQPILVRPSPDTAGEYQIVAGERAWRAAQRAGLKTVPIMVRELDDLAVLEIGIIENVQRADLNVLEEALSYKVLMEKFERTQENIAQTIGKSXSHVANXMRLLXLPDEVQSYLVSGELTAXHARAIAAAADPVALAKQIIEGGLSVRETEALARKAPNLSAGKSKGGRPPRVKDTDTQALESDLSSVLGLDVSIDHRGSTGTLTITYATLEQLDDLCNRLTRGI

Variants of: B1
Test: one-hybrid fitness for binding parS DNA (scaled: cognate 1, non-cognate 0); higher = stronger binding
Settings: with parS DNA site
Method in brief: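 In E. coli USO, a HIS3 reporter with its site placed 19 bp from the promoter was used to select Caulobacter ParB variants randomised at four specificity codons. Growth lasted 48 hours at 37°C on histidine-free M9 containing 0.1 mM IPTG and 5 mM 3-AT. Fitness was taken as the log change in variant-to-wild-type read ratio from Illumina sequencing of pre- and post-selection plasmids, rescaled between the non-cognate and cognate sites.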

Variant | one-hybrid fitness for binding parS DNA
PAPR | ≤ 0.2
WDAR | ≤ 0.2
LYTE | ≤ 0.2
AAMD | ≤ 0.2
AAWQ | ≤ 0.2
AGTC | ≤ 0.2
QPRT | ≤ 0.2
GAVC | ≤ 0.2
TVMM | ≤ 0.2
WGYS | ≤ 0.2
EVNA | ≤ 0.2
DYLY | ≤ 0.2
TPER | ≤ 0.2
HRKS | 0.418
DKIS | ≤ 0.2
HHTN | ≤ 0.2
QISN | ≤ 0.2
QCQE | ≤ 0.2
AYFM | ≤ 0.2
SFHY | ≤ 0.2
VDPL | ≤ 0.2
NLNV | ≤ 0.2
STTG | ≤ 0.2
TQGV | ≤ 0.2
SRIG | ≤ 0.2

Variant | one-hybrid fitness for binding parS DNA
SGEL | ≤ 0.2
GKDR | ≤ 0.2
YGSN | ≤ 0.2
YSLD | ≤ 0.2
TNTH | ≤ 0.2
TKLW | ≤ 0.2
YLQF | ≤ 0.2
LSAS | ≤ 0.2
PSES | ≤ 0.2
VYRN | ≤ 0.2
TALF | ≤ 0.2
PTQF | ≤ 0.2
RMEI | ≤ 0.2
ATWG | ≤ 0.2
MNAS | ≤ 0.2
HAQF | ≤ 0.2
MKHG | ≤ 0.2
WGTV | ≤ 0.2
FWSC | ≤ 0.2
QQQS | ≤ 0.2
RCCS | 1.01
ATTS | ≤ 0.2
RGQS | 0.803
MKIR | ≤ 0.2
TEKL | ≤ 0.2

Variant | one-hybrid fitness for binding parS DNA
LQRG | ≤ 0.2
QPAW | ≤ 0.2
DRTS | ≤ 0.2
GLLW | ≤ 0.2
LMNV | ≤ 0.2
NHKG | ≤ 0.2
NGCS | ≤ 0.2
NWHQ | ≤ 0.2
HSYL | ≤ 0.2
PDHK | ≤ 0.2
LTCS | ≤ 0.2
KREF | ≤ 0.2
WSSR | ≤ 0.2
IVMF | ≤ 0.2
CTDV | ≤ 0.2
LKDV | ≤ 0.2
DTMC | ≤ 0.2
HACN | ≤ 0.2
FETN | ≤ 0.2
ANFG | ≤ 0.2
CPPA | ≤ 0.2
DSAV | ≤ 0.2
RPGN | ≤ 0.2
ASAY | ≤ 0.2
AHHK | ≤ 0.2

Variant | one-hybrid fitness for binding parS DNA
VMAE | ≤ 0.2
RLAV | ≤ 0.2
WVLC | ≤ 0.2
VERR | ≤ 0.2
QHPG | ≤ 0.2
PTPF | ≤ 0.2
YHFC | ≤ 0.2
TDYR | ≤ 0.2
ILGT | ≤ 0.2
GGQR | ≤ 0.2
GDRT | ≤ 0.2
RTAP | ≤ 0.2
TDQL | ≤ 0.2
TTHF | ≤ 0.2
PTTR | ≤ 0.2
KALT | ≤ 0.2
NWSN | ≤ 0.2
TRCC | ≤ 0.2
LDFI | ≤ 0.2
VTMY | ≤ 0.2
QKDI | ≤ 0.2
IKMC | ≤ 0.2
YNNG | ≤ 0.2
DTNP | ≤ 0.2
KAIC | ≤ 0.2

Variant | one-hybrid fitness for binding parS DNA
FTHG | ≤ 0.2
TLNA | ≤ 0.2
IINF | ≤ 0.2
IRKN | ≤ 0.2
MALR | ≤ 0.2
LFTK | ≤ 0.2
GAMF | ≤ 0.2
RNYN | 0.235
HTYF | ≤ 0.2
RNVN | ≤ 0.2
HRTM | ≤ 0.2
LPVK | ≤ 0.2
PYSC | ≤ 0.2
DRMF | ≤ 0.2
QMPQ | ≤ 0.2
YAKL | ≤ 0.2
MRAI | ≤ 0.2
SVAD | ≤ 0.2
DSVL | ≤ 0.2
SGSR | ≤ 0.2
RSDS | 0.939
YYDG | ≤ 0.2
SFWL | ≤ 0.2
KSCG | ≤ 0.2
QMGG | ≤ 0.2

Variant | one-hybrid fitness for binding parS DNA
PITT | ≤ 0.2
HRGK | ≤ 0.2
YIQR | ≤ 0.2
WISA | ≤ 0.2
VDMP | ≤ 0.2
VIFR | ≤ 0.2
CKDY | ≤ 0.2
LAKG | ≤ 0.2
VSVT | ≤ 0.2
LHPP | ≤ 0.2
QCWG | ≤ 0.2
HTTM | ≤ 0.2
KYEE | ≤ 0.2
QPRS | ≤ 0.2
QCLY | ≤ 0.2
TYSK | ≤ 0.2
TSPY | ≤ 0.2
IAVG | ≤ 0.2
EEPE | ≤ 0.2
IRTP | ≤ 0.2
WARN | ≤ 0.2
KHST | ≤ 0.2
QHCM | ≤ 0.2
HRPS | ≤ 0.2
FPER | ≤ 0.2

Variant | one-hybrid fitness for binding parS DNA
NPLL | ≤ 0.2
LMEL | ≤ 0.2
PQSW | ≤ 0.2
MNIR | ≤ 0.2
RHQA | 0.5
MAAR | ≤ 0.2
DGAT | ≤ 0.2
TIQG | ≤ 0.2
LLQM | ≤ 0.2
IDRK | ≤ 0.2
RWAR | ≤ 0.2
SNPW | ≤ 0.2
TDCY | ≤ 0.2
GTRI | ≤ 0.2
YLTF | ≤ 0.2
SRSS | ≤ 0.2
HMRF | ≤ 0.2
LELG | ≤ 0.2
VRLR | ≤ 0.2
TPLF | ≤ 0.2
CMMT | ≤ 0.2
HMFS | ≤ 0.2
RRKL | ≤ 0.2
QMYT | ≤ 0.2
TSDF | ≤ 0.2

Variant | one-hybrid fitness for binding parS DNA
RRDG | 0.888
FVPL | ≤ 0.2
LCGR | ≤ 0.2
HFML | ≤ 0.2
FVGS | ≤ 0.2
GDKS | ≤ 0.2
MHRF | ≤ 0.2
SPRV | ≤ 0.2
PCVV | ≤ 0.2
APNV | ≤ 0.2
LPPG | ≤ 0.2
ETPN | ≤ 0.2
GDWT | ≤ 0.2
MELG | ≤ 0.2
EQMM | ≤ 0.2
FKTC | ≤ 0.2
HHVE | ≤ 0.2
CLIW | ≤ 0.2
STVH | ≤ 0.2
KSGR | ≤ 0.2
